± gives the standard error. Variants at the background level are over-represented here.
B1: glmS ribozyme (parent)
chain: AUAAAAGCGCCAGAACUACAGAAAUGUAGUUGACGAGGAGGAGGUUUAUCGAAUUUUCGGCGGAUGCCUCCAAA

What was measured:
Conditions in all cases: with glucosamine-6-phosphate
[1] = variants of: B1; test: self-cleavage kobs at 640 uM GlcN6P; higher = faster cleavage; RNA array
Outline: (§1)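 Glucosamine-6-phosphate (40 μM to 10 mM) in HEPES/KCl/Mg(OAc)2 buffer was flowed over sequenced MiSeq chips, and tiles were imaged over ~14 h. Barcoded ribozyme variants there had been transcribed in situ by E. coli RNA polymerase and were tracked through a hybridised Cy3 probe at 37 °C. One- or two-exponential decay fits to per-tile medians, normalised to baseline and to non-cleaving reference variants, gave kobs. kcat and KM came from weighted Michaelis–Menten fits across concentrations.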

[2] = variants of: B1; test: self-cleavage kobs at 2500 uM GlcN6P; higher = faster cleavage; RNA array
Outline: as §1

[3] = variants of: B1; test: self-cleavage kobs at 10000 uM GlcN6P; higher = faster cleavage; RNA array
Outline: as §1

[4] = variants of: B1; test: self-cleavage kobs at 160 uM GlcN6P; higher = faster cleavage; RNA array
Outline: as §1

G38U G63C
self-cleavage kobs at 640 uM GlcN6P [1]: < 1e-05 s⁻¹
self-cleavage kobs at 2500 uM GlcN6P [2]: < 1e-05 s⁻¹
self-cleavage kobs at 10000 uM GlcN6P [3]: < 1e-05 s⁻¹

G40U G41C C61U
self-cleavage kobs at 640 uM GlcN6P [1]: < 1e-05 s⁻¹
self-cleavage kobs at 160 uM GlcN6P [4]: < 1e-05 s⁻¹

A39C G43A
self-cleavage kobs at 640 uM GlcN6P [1]: < 1e-05 s⁻¹
self-cleavage kobs at 160 uM GlcN6P [4]: < 1e-05 s⁻¹

G37C G44A U57C G66C
self-cleavage kobs at 640 uM GlcN6P [1]: < 1e-05 s⁻¹
self-cleavage kobs at 160 uM GlcN6P [4]: < 1e-05 s⁻¹

G38C U47A G63C
self-cleavage kobs at 640 uM GlcN6P [1]: < 1e-05 s⁻¹

G35C G43U A52U C61U
self-cleavage kobs at 640 uM GlcN6P [1]: < 1e-05 s⁻¹
self-cleavage kobs at 2500 uM GlcN6P [2]: < 1e-05 s⁻¹

G35A G41A U45A
self-cleavage kobs at 640 uM GlcN6P [1]: < 1e-05 s⁻¹
self-cleavage kobs at 2500 uM GlcN6P [2]: < 1e-05 s⁻¹
self-cleavage kobs at 10000 uM GlcN6P [3]: < 1e-05 s⁻¹

A39C G44U G59C
self-cleavage kobs at 640 uM GlcN6P [1]: < 1e-05 s⁻¹
self-cleavage kobs at 2500 uM GlcN6P [2]: < 1e-05 s⁻¹

G35C G41U C58U G62A U69G
self-cleavage kobs at 640 uM GlcN6P [1]: < 1e-05 s⁻¹
self-cleavage kobs at 10000 uM GlcN6P [3]: < 1e-05 s⁻¹

G35U G38C G66U
self-cleavage kobs at 640 uM GlcN6P [1]: < 1e-05 s⁻¹

A39G A64C U69G C71U
self-cleavage kobs at 640 uM GlcN6P [1]: < 1e-05 s⁻¹
self-cleavage kobs at 2500 uM GlcN6P [2]: < 1e-05 s⁻¹

A36U U45A G63U
self-cleavage kobs at 640 uM GlcN6P [1]: < 1e-05 s⁻¹
self-cleavage kobs at 2500 uM GlcN6P [2]: < 1e-05 s⁻¹

G35A U54C A64C
self-cleavage kobs at 640 uM GlcN6P [1]: < 1e-05 s⁻¹

A36G G44U C50A A52U C67U
self-cleavage kobs at 640 uM GlcN6P [1]: < 1e-05 s⁻¹
self-cleavage kobs at 2500 uM GlcN6P [2]: < 1e-05 s⁻¹

G38A G41U A42C U45C U54G C68G
self-cleavage kobs at 640 uM GlcN6P [1]: < 1e-05 s⁻¹

G35U U45G C58U C67U
self-cleavage kobs at 640 uM GlcN6P [1]: < 1e-05 s⁻¹
self-cleavage kobs at 2500 uM GlcN6P [2]: < 1e-05 s⁻¹

G38A G44C U47A A48C G63U
self-cleavage kobs at 640 uM GlcN6P [1]: < 1e-05 s⁻¹

A36C U46G A52G G60U
self-cleavage kobs at 640 uM GlcN6P [1]: < 1e-05 s⁻¹
self-cleavage kobs at 160 uM GlcN6P [4]: < 1e-05 s⁻¹
self-cleavage kobs at 2500 uM GlcN6P [2]: < 1e-05 s⁻¹

G35A A52U C61A
self-cleavage kobs at 640 uM GlcN6P [1]: < 1e-05 s⁻¹

A36C U45C
self-cleavage kobs at 640 uM GlcN6P [1]: < 1e-05 s⁻¹
self-cleavage kobs at 160 uM GlcN6P [4]: < 1e-05 s⁻¹
self-cleavage kobs at 2500 uM GlcN6P [2]: < 1e-05 s⁻¹

A39C U45G U56G
self-cleavage kobs at 640 uM GlcN6P [1]: 7.85e-05 ± 2.3e-05 s⁻¹

G38C U45A C71A
self-cleavage kobs at 640 uM GlcN6P [1]: < 1e-05 s⁻¹

G38C U45C C70A
self-cleavage kobs at 640 uM GlcN6P [1]: < 1e-05 s⁻¹
self-cleavage kobs at 2500 uM GlcN6P [2]: < 1e-05 s⁻¹

C34U G41C
self-cleavage kobs at 640 uM GlcN6P [1]: < 1e-05 s⁻¹
self-cleavage kobs at 160 uM GlcN6P [4]: < 1e-05 s⁻¹
self-cleavage kobs at 2500 uM GlcN6P [2]: < 1e-05 s⁻¹
self-cleavage kobs at 10000 uM GlcN6P [3]: < 1e-05 s⁻¹

G35C A36G U49A
self-cleavage kobs at 640 uM GlcN6P [1]: < 1e-05 s⁻¹
self-cleavage kobs at 160 uM GlcN6P [4]: < 1e-05 s⁻¹
self-cleavage kobs at 2500 uM GlcN6P [2]: < 1e-05 s⁻¹

A36C A39C A52U
self-cleavage kobs at 640 uM GlcN6P [1]: < 1e-05 s⁻¹

A36U G44A C67U
self-cleavage kobs at 640 uM GlcN6P [1]: < 1e-05 s⁻¹
self-cleavage kobs at 2500 uM GlcN6P [2]: < 1e-05 s⁻¹

A39U A42C
self-cleavage kobs at 640 uM GlcN6P [1]: 9.53e-05 ± 1.1e-05 s⁻¹
self-cleavage kobs at 160 uM GlcN6P [4]: 2.58e-05 ± 7.6e-06 s⁻¹
self-cleavage kobs at 2500 uM GlcN6P [2]: 0.000273 ± 3.6e-05 s⁻¹
self-cleavage kobs at 10000 uM GlcN6P [3]: 0.000419 ± 3.9e-05 s⁻¹

A36C A42U G44C A52U
self-cleavage kobs at 640 uM GlcN6P [1]: < 1e-05 s⁻¹

G40U U45G C58U
self-cleavage kobs at 640 uM GlcN6P [1]: < 1e-05 s⁻¹
self-cleavage kobs at 160 uM GlcN6P [4]: < 1e-05 s⁻¹
self-cleavage kobs at 10000 uM GlcN6P [3]: < 1e-05 s⁻¹

G38A G44C C67U C71A
self-cleavage kobs at 640 uM GlcN6P [1]: < 1e-05 s⁻¹
self-cleavage kobs at 2500 uM GlcN6P [2]: < 1e-05 s⁻¹

G37C G40U U46G G63U
self-cleavage kobs at 640 uM GlcN6P [1]: < 1e-05 s⁻¹
self-cleavage kobs at 10000 uM GlcN6P [3]: < 1e-05 s⁻¹

G35C G40A G43U
self-cleavage kobs at 640 uM GlcN6P [1]: < 1e-05 s⁻¹

G38C A64U
self-cleavage kobs at 640 uM GlcN6P [1]: < 1e-05 s⁻¹
self-cleavage kobs at 160 uM GlcN6P [4]: < 1e-05 s⁻¹
self-cleavage kobs at 2500 uM GlcN6P [2]: < 1e-05 s⁻¹
self-cleavage kobs at 10000 uM GlcN6P [3]: < 1e-05 s⁻¹

A39C A42U A64U
self-cleavage kobs at 640 uM GlcN6P [1]: < 1e-05 s⁻¹

G35C A39U G60U
self-cleavage kobs at 640 uM GlcN6P [1]: < 1e-05 s⁻¹
self-cleavage kobs at 2500 uM GlcN6P [2]: < 1e-05 s⁻¹

G35C G44A U56A
self-cleavage kobs at 640 uM GlcN6P [1]: < 1e-05 s⁻¹
self-cleavage kobs at 2500 uM GlcN6P [2]: < 1e-05 s⁻¹

G40A A42G G51U U57A U69C
self-cleavage kobs at 640 uM GlcN6P [1]: < 1e-05 s⁻¹

A39G A52C A53U C70G
self-cleavage kobs at 640 uM GlcN6P [1]: < 1e-05 s⁻¹
self-cleavage kobs at 10000 uM GlcN6P [3]: < 1e-05 s⁻¹

G37A A53C C71U
self-cleavage kobs at 640 uM GlcN6P [1]: 3.79e-05 ± 1.4e-05 s⁻¹
self-cleavage kobs at 2500 uM GlcN6P [2]: 6.98e-05 ± 1.5e-05 s⁻¹

A36G G38U C50A G62A
self-cleavage kobs at 640 uM GlcN6P [1]: < 1e-05 s⁻¹

A36U U47A G62U
self-cleavage kobs at 640 uM GlcN6P [1]: < 1e-05 s⁻¹

G38U U65C
self-cleavage kobs at 640 uM GlcN6P [1]: < 1e-05 s⁻¹
self-cleavage kobs at 2500 uM GlcN6P [2]: < 1e-05 s⁻¹

G37A G38U A53G
self-cleavage kobs at 640 uM GlcN6P [1]: < 1e-05 s⁻¹

C34U U46G C68G
self-cleavage kobs at 640 uM GlcN6P [1]: 0.000568 ± 0.00025 s⁻¹
self-cleavage kobs at 2500 uM GlcN6P [2]: < 1e-05 s⁻¹

G40C A42G C58A
self-cleavage kobs at 640 uM GlcN6P [1]: < 1e-05 s⁻¹
self-cleavage kobs at 160 uM GlcN6P [4]: < 1e-05 s⁻¹

G35A U57A
self-cleavage kobs at 640 uM GlcN6P [1]: < 1e-05 s⁻¹
self-cleavage kobs at 160 uM GlcN6P [4]: < 1e-05 s⁻¹
self-cleavage kobs at 2500 uM GlcN6P [2]: < 1e-05 s⁻¹
self-cleavage kobs at 10000 uM GlcN6P [3]: < 1e-05 s⁻¹

G38C G66C
self-cleavage kobs at 640 uM GlcN6P [1]: < 1e-05 s⁻¹
self-cleavage kobs at 160 uM GlcN6P [4]: < 1e-05 s⁻¹
self-cleavage kobs at 2500 uM GlcN6P [2]: < 1e-05 s⁻¹

A36G G41C
self-cleavage kobs at 640 uM GlcN6P [1]: < 1e-05 s⁻¹

G40U C50A A64G
self-cleavage kobs at 640 uM GlcN6P [1]: < 1e-05 s⁻¹

G38C G66C C70U
self-cleavage kobs at 640 uM GlcN6P [1]: < 1e-05 s⁻¹

G38U A42U U56G
self-cleavage kobs at 640 uM GlcN6P [1]: < 1e-05 s⁻¹
self-cleavage kobs at 160 uM GlcN6P [4]: < 1e-05 s⁻¹
self-cleavage kobs at 10000 uM GlcN6P [3]: < 1e-05 s⁻¹

A36U U56G U65C
self-cleavage kobs at 640 uM GlcN6P [1]: < 1e-05 s⁻¹

G37U U46A G60A
self-cleavage kobs at 640 uM GlcN6P [1]: < 1e-05 s⁻¹

C34U G51A U57G U69G
self-cleavage kobs at 640 uM GlcN6P [1]: 0.000271 ± 9.8e-05 s⁻¹
self-cleavage kobs at 10000 uM GlcN6P [3]: 0.000296 ± 7.8e-05 s⁻¹

A39C C61G C67A
self-cleavage kobs at 640 uM GlcN6P [1]: < 1e-05 s⁻¹
self-cleavage kobs at 160 uM GlcN6P [4]: < 1e-05 s⁻¹

C34U U47G
self-cleavage kobs at 640 uM GlcN6P [1]: < 1e-05 s⁻¹
self-cleavage kobs at 160 uM GlcN6P [4]: < 1e-05 s⁻¹

G35A G43U U49A G66U C71U
self-cleavage kobs at 640 uM GlcN6P [1]: < 1e-05 s⁻¹
self-cleavage kobs at 2500 uM GlcN6P [2]: < 1e-05 s⁻¹

G35U C50U A53U
self-cleavage kobs at 640 uM GlcN6P [1]: < 1e-05 s⁻¹

G40A U57C C58A C61U
self-cleavage kobs at 640 uM GlcN6P [1]: < 1e-05 s⁻¹

G35U U57A G59C C70G
self-cleavage kobs at 640 uM GlcN6P [1]: < 1e-05 s⁻¹
self-cleavage kobs at 2500 uM GlcN6P [2]: < 1e-05 s⁻¹

G37A A48C G59A
self-cleavage kobs at 640 uM GlcN6P [1]: < 1e-05 s⁻¹

From the supplement of paper PMC7125110
